# The BET-seq Pho4 binding data (Le et al. 2018)
# The list shows a part of the results. Values were computed here from the reads of four pooled replicates and scatter widely.
# Biological target: T1, Pho4 (S. cerevisiae) (UniProt P07270)
# T1 sequence: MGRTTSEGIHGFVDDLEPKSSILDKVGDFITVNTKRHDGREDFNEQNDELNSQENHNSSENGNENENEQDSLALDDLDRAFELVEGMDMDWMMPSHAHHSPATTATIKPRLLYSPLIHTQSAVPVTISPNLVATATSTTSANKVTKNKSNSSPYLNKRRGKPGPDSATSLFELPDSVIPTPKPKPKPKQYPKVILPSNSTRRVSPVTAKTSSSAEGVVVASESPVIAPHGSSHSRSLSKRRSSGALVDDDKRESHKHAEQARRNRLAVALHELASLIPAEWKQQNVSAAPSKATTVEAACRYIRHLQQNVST
# Assay: relative binding free energy (BET-seq); higher = weaker binding
# Settings: reference: library average
row,Sequence,relative binding free energy [kcal/mol]
1,AGAGACACGTGTTGAT,0.05
2,CTATTCACGTGTGTGA,0.23
3,GCGAGCACGTGTTGAG,-0.07
4,TTCTTCACGTGTCATT,0.35
5,GGCGGCACGTGTTATT,-0.02
6,GTCTTCACGTGGTTAG,0.35
7,TTTGGCACGTGCAGAT,-0.23
8,ATAGACACGTGTGAGG,0.06
9,CATGTCACGTGTGTAG,0.19
10,TTGGTCACGTGAATCT,0.27
11,GTGTTCACGTGAGCGG,0.41
12,TTATGCACGTGTAATC,0.06
13,AATAACACGTGGGGTT,-0.03
14,AAGAGCACGTGGGTTT,-0.16
15,ATTCTCACGTGAGGTT,0.32
16,CTTTGCACGTGATTTG,0.27
17,AGCTTCACGTGCGGGT,0.12
18,TGAGACACGTGGAGAT,0.11
19,TGTGTCACGTGTTCCG,0.12
20,TGGGCCACGTGTGGGT,-0.02
21,TGACGCACGTGGGGAG,-0.26
22,TGTGGCACGTGGCTGT,-0.15
23,AGGGACACGTGTACTT,0.12
24,GTGATCACGTGTAGGC,0.1
25,GGTTCCACGTGTCGTG,0.2
26,TGGGGCACGTGGGACG,-0.15

row,Sequence,relative binding free energy [kcal/mol]
1,TGTATCACGTGGAGGT,0.11
2,TGTAGCACGTGGGTGT,-0.22
3,ATGGTCACGTGCTGGT,0.03
4,AGTATCACGTGGTCTG,-0.07
5,GGGCTCACGTGTGTCT,0.3
6,CGTAACACGTGGGGGA,-0.16
7,CTTAGCACGTGGGAGT,-0.17
8,CCTTGCACGTGGGGTA,-0.13
9,AGTGGCACGTGTGGGG,-0.01
10,TTGTTCACGTGAAAAA,0.31
11,CCGGGCACGTGAGTTG,0.14
12,CTTGTCACGTGTGTGT,0.1
13,TAGGTCACGTGTTATC,-0.01
14,GTGGCCACGTGTGGAA,-0.07
15,AAACGCACGTGTTAGT,0.17
16,CGGGGCACGTGAGGGA,0.1
17,TTTCGCACGTGGAGGT,0.03
18,TTCTTCACGTGTAATG,0.19
19,TCGTTCACGTGTATAG,0.33
20,AGTTGCACGTGTATCG,-0.01
21,GGTTGCACGTGGACAG,0.09
22,TTTTTCACGTGGGTAG,0.28
23,GGCTACACGTGGTTAT,0.07
24,GTAGTCACGTGGTAAG,0.15
25,GGCGGCACGTGGTTAT,-0.12
26,TGTAGCACGTGGAGGG,-0.08

row,Sequence,relative binding free energy [kcal/mol]
1,AGTTGCACGTGAGATT,0.18
2,CTAATCACGTGGGCGT,0.18
3,CGGGTCACGTGGTCGA,-0.07
4,CAGCGCACGTGGTGTA,-0.17
5,AGGACCACGTGTTTTG,0.05
6,CGGCTCACGTGTTAGG,0.31
7,TCCTGCACGTGGGCGT,-0.05
8,GTGAACACGTGGTGGA,-0.06
9,GGGAACACGTGACGGG,0.15
10,AATGGCACGTGTTTTC,-0.13
11,TTAGGCACGTGGCTTA,-0.25
12,ATGTTCACGTGTCTTG,0.19
13,ATAATCACGTGAATGT,0.22
14,TACGACACGTGGAGGT,-0.1
15,GGGTTCACGTGTTTGC,0.16
16,ATAGTCACGTGTGCCT,0.2
17,TTGTTCACGTGGGAAG,0.19
18,AATATCACGTGGGGGG,0
19,AGTTTCACGTGGGAAA,0.06
20,ATGCGCACGTGGGGAC,-0.2
21,TAATTCACGTGTACTT,0.13
22,GGGGGCACGTGGCTTG,-0.14
23,AGGGTCACGTGGAGTG,0.11
24,GTGATCACGTGGTGGA,0.02
25,GTGAGCACGTGGCGTG,-0.25
26,GTCGGCACGTGTGATT,0.15

row,Sequence,relative binding free energy [kcal/mol]
1,TATGTCACGTGCGGGG,-0.11
2,GTTTGCACGTGGGATA,-0.16
3,TGTTGCACGTGTCAGC,0.01
4,TAGGTCACGTGAGCGG,0.19
5,GGGAGCACGTGAGGGG,0.16
6,GTAGTCACGTGATGCG,0.33
7,CAAGTCACGTGCGTGG,0.01
8,TCGGGCACGTGGGCGT,-0.18
9,TGGTCCACGTGGCGTT,-0.14
10,TTTAGCACGTGTTCGT,-0.01
11,AAAATCACGTGGGGGG,0.06
12,TTTCGCACGTGCGTGG,-0.15
13,GTTTGCACGTGATATA,0.03
14,ATTTTCACGTGTGTCT,0.22
15,GGGGTCACGTGGGTAC,0.06
16,CAGGCCACGTGGTCGG,-0.08
17,AATAGCACGTGAGTGT,0.21
18,CATTACACGTGGTATG,0.11
19,TGTGTCACGTGTAAAT,0.22
20,TCGGGCACGTGGGGTC,-0.15
21,TTCTTCACGTGGCGGA,0.35
22,TCGAGCACGTGTGTGT,-0.04
23,TTGCACACGTGTATGT,-0.05
24,TGCAACACGTGAAGGG,0.34
25,CTTTTCACGTGTGTAC,0.34
26,TATATCACGTGATGGT,0.14

row,Sequence,relative binding free energy [kcal/mol]
1,ATGTACACGTGAGGGA,0.19
2,GTGTTCACGTGGGGGA,0.27
3,CCTGGCACGTGGGGTG,-0.41
4,TGGGACACGTGTTAGA,0.12
5,TGTTGCACGTGATTCA,0.16
6,TAGTACACGTGATTGT,0.04
7,GCGTTCACGTGGTCTT,0.25
8,TGATTCACGTGTTAGA,0.2
9,TCTAGCACGTGTGTAT,-0.11
10,TGAGACACGTGGGTAT,-0.1
11,GTTCTCACGTGTTTAG,0.3
12,GCTGTCACGTGTCTTG,0.25
13,GGACTCACGTGGAGTG,0.12
14,AGGAACACGTGCGGTG,0.01
15,GGTGACACGTGAGATA,0.33
16,GGAGCCACGTGTGGGG,0.02
17,TTTGTCACGTGTACAC,0.28
18,AGATACACGTGGTCTG,-0.07
19,AGTGCCACGTGTAATT,0.18
20,GGTACCACGTGGGATT,-0.04
21,TTAGTCACGTGCGTGG,0.02
22,TCAGACACGTGAGGGA,0.34
23,GGGGGCACGTGGATGG,-0.03
24,ATGTTCACGTGTACGA,0.15
25,TGTCACACGTGTTTTG,0.05
26,GGATTCACGTGGATTT,0.42

row,Sequence,relative binding free energy [kcal/mol]
1,TGTGGCACGTGATGTT,0.13
2,AGCGGCACGTGGTCGG,-0.25
3,ATATTCACGTGACGGT,0.42
4,TGCAGCACGTGGGGTA,-0.12
5,GTGTTCACGTGCCTGG,0.11
6,GTCGGCACGTGGGCAG,-0.31
7,GTTGTCACGTGATAAT,0.29
8,TGGTGCACGTGTGCCG,0.06
9,TATCGCACGTGGTGGT,-0.07
10,TGTGGCACGTGGTTTT,-0.08
11,TTAGACACGTGAATAT,0.25
12,TTTGCCACGTGTGCGA,-0.04
13,ATTGGCACGTGCAATT,-0.07
14,AGAAGCACGTGGGATG,-0.18
15,AATTACACGTGTAGTT,0.07
16,ATAAGCACGTGTGAAG,-0.04
17,AGGCTCACGTGTTGAT,0.2
18,AATAACACGTGGGTGC,-0.14
19,GTTGGCACGTGATGGT,0.1
20,TTGTTCACGTGGATCA,0.17
21,AGGACCACGTGTGGTG,0.02
22,GGTCTCACGTGGCTTG,0.05
23,ATGGTCACGTGTACGT,0.24
24,GAGAGCACGTGGGTGT,-0.17
25,GTAGCCACGTGTGTGT,0.03
26,CTACTCACGTGTTTGT,0.21

row,Sequence,relative binding free energy [kcal/mol]
1,CTGGTCACGTGATTAT,0.19
2,CTTAGCACGTGGGGGG,-0.18
3,TTTGTCACGTGAGTCA,0.38
4,AGTTACACGTGTTGGG,0.14
5,TGGGCCACGTGAGGTG,0.16
6,AATATCACGTGTGGGC,0.18
7,GAGGCCACGTGTGGAG,0.1
8,AGGAGCACGTGTGTTA,0.08
9,ATACACACGTGTTGGG,-0.09
10,AGTTTCACGTGGATGC,0.38
11,ATTGGCACGTGTGGAG,-0.11
12,GCTTACACGTGGTTTA,0.13
13,TGAAACACGTGGGTTA,-0.08
14,TTGTGCACGTGGGGGC,-0.19
15,GGTAACACGTGGTCTT,-0.04
16,ACTGTCACGTGGAGTA,0.04
17,TATAGCACGTGCGTTA,0.01
18,CATGGCACGTGGATTA,0.14
19,CGAATCACGTGTGTTG,0.02
20,TGTGACACGTGTAGCG,0.07
21,AGTTGCACGTGAAGTC,0.35
22,AGGTTCACGTGTTGGG,0.3
23,TAGGGCACGTGAGTCG,0.15
24,AATGGCACGTGCAGTT,-0.12
25,AGTGCCACGTGGTGAG,0
26,ATAGTCACGTGGGGAG,0

row,Sequence,relative binding free energy [kcal/mol]
1,CGTTGCACGTGTTGAA,0.05
2,TGGCTCACGTGGGTGA,0.1
3,GGGTACACGTGGCGGG,0.01
4,ATTCGCACGTGTGTTA,-0.06
5,GTTGCCACGTGGTATT,-0.1
6,GGATTCACGTGCGGTA,0.21
7,TAATACACGTGTTGCT,0
8,AAGGGCACGTGAAGGA,0.1
9,AGGAACACGTGTAGAG,0.15
10,ATTCGCACGTGATTGG,0.01
11,GGTGTCACGTGATTTC,0.29
12,ACAGGCACGTGAGTGG,0.18
13,ATTAGCACGTGTTGCG,-0.08
14,GGGCCCACGTGGGGTG,-0.3
15,GGTGCCACGTGTTGGA,0.07
16,CCTATCACGTGGGGGG,-0.11
17,AGGAGCACGTGGGAGA,-0.14
18,ATGAACACGTGTGTTT,0
19,TTGTACACGTGGTTAT,0.12
20,TGAGGCACGTGAGGAA,0.22
21,GGGTGCACGTGGTCAT,0.04
22,GTTCGCACGTGTAGGT,0
23,AGGATCACGTGTAAGG,0.28
24,GTGTGCACGTGATGGT,0.17
25,GCGTACACGTGTTGTG,-0.04
26,AGTTACACGTGATGAG,0.15

row,Sequence,relative binding free energy [kcal/mol]
1,ATTAACACGTGTATTT,-0.04
2,AGTAGCACGTGGGCGA,-0.12
3,ATTAGCACGTGAGGGC,0.2
4,AATGCCACGTGGGTAG,-0.11
5,TTTGTCACGTGGAGCG,0.12
6,TGTGGCACGTGAAGCG,0
7,TATGGCACGTGATCAG,-0.13
8,TTTGGCACGTGACTGT,-0.14
9,GGAGTCACGTGTCATG,0.19
10,GTCAGCACGTGTCGGG,-0.02
11,TTGAACACGTGGAATT,0.15
12,ATAGGCACGTGGATGG,-0.16
13,AATAGCACGTGAGTTG,0.19
14,TACGCCACGTGTGAGG,0.07
15,GGGGACACGTGGGGTA,-0.16
16,GGCGGCACGTGGTGGC,-0.22
17,AGGAACACGTGGTGGA,0.06
18,TTAGCCACGTGTGCGT,-0.11
19,TAGGGCACGTGGGGTT,-0.22
20,CGGTACACGTGAAGTG,0.23
21,AAGTGCACGTGGGAAT,0.01
22,TTTAACACGTGGAGCT,0.07
